Measured values reported in the supplement of paper PMC4967469.
A lower IC50 marks a more sensitive line; a fit beyond the top or the lowest dose is shown as a bound at that dose. AUC is the area under the same curve over the 256-fold range up to the top dose, as a fraction: 1 means no effect, lower means more sensitive. For some of these results: Any top dose called inferred was calculated from the reported fits.

How the values were obtained:
Assay in all cases: Viability of human cancer cell lines after 72 h of drug (GDSC screen)
[1] = compound: Cc1ccc2nc(NCCN)c3ncc(C)n3c2c1 [BMS-345541]; details: top dose 16 µM
Method: (§1)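 Human cancer cell lines in 384-well plates, medium with 10% serum, drug for 72 h over a 256-fold dose range (nine 2-fold or five 4-fold steps up to the top dose). Adherent lines were fixed and stained with the nucleic acid dye Syto60, suspension lines read with resazurin; signal relative to control wells, capped at 0 and 100%. One two-parameter sigmoid per drug and line, fitted in a mixed model over all curves with the slope shared within a line.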

[2] = compound: COc1cc(C(=O)NC2CCN(C)CC2)ccc1Nc1ncc2c(n1)N(C1CCCC1)C(C)CC(=O)N2C [NPK76-II-72-1]; details: top dose 10.24 µM; top dose inferred
Method: as §1

[3] = compound: C=C(c1ccc(C(=O)O)cc1)c1cc2c(cc1C)C(C)(C)CCC2(C)C [Bexarotene]; details: top dose 8 µM
Method: as §1

[4] = compound: NC(=O)Nc1cc(-c2cccc(F)c2)sc1C(=O)N[C@H]1CCCNC1 [AZD7762]; details: top dose 2 µM
Method: as §1

[5] = compound: Oc1nc(-c2ccc(C(F)(F)F)cc2)nc2c1CSCC2 [XAV 939]; details: top dose 5 µM; top dose inferred
Method: as §1

[6] = compound: O=C(O)c1ccc(-c2c[nH]c3ncc(-c4ccccc4)cc23)cc1C1CCCC1 [GSK-650394]; details: top dose 16 µM; top dose inferred
Method: as §1

[7] = compound: COc1cc([C@@H]2c3cc4c(cc3[C@@H](O[C@@H]3O[C@@H]5CO[C@@H](C)O[C@H]5[C@H](O)[C@H]3O)[C@H]3COC(=O)[C@H]23)OCO4)cc(OC)c1O [Etoposide]; details: top dose 16 µM
Method: as §1

[8] = compound: COc1ccc(C(=O)CC2(O)C(=O)Nc3c(Cl)ccc(Cl)c32)cc1 [YK 4-279]; details: top dose 10 µM
Method: as §1

Row | Cell Line | AUC [1] | IC50 [1] [µM] | AUC [2] | IC50 [2] [µM] | AUC [3] | IC50 [3] [µM] | AUC [4] | IC50 [4] [µM] | AUC [5] | IC50 [5] [µM] | AUC [6] | IC50 [6] [µM] | AUC [7] | IC50 [7] [µM] | AUC [8] | IC50 [8] [µM]
1 | SW954 (urogenital system, adherent) | 0.8 | 7.83 | 0.65 | 1.68 | 0.961 | > 8 | 0.695 | 0.446 | 0.87 | 4.76 | 0.651 | 2.63 | 0.534 | 1.24 | – | –
2 | SW1573 (lung adenocarcinoma, adherent) | 0.932 | > 16 | 0.972 | > 10.2 | 0.966 | > 8 | 0.795 | 1.32 | 0.893 | > 5 | 0.98 | > 16 | 0.606 | 2.16 | – | –
3 | SW1783 (glioma, adherent) | 0.916 | > 16 | 0.991 | > 10.2 | 0.981 | > 8 | 0.815 | 0.964 | 0.974 | > 5 | 0.95 | > 16 | 0.694 | 3.29 | – | –
4 | T84 (large intestine, adherent) | 0.925 | > 16 | 0.928 | > 10.2 | 0.94 | > 8 | 0.989 | > 2 | 0.981 | > 5 | 0.651 | 2.63 | 0.984 | > 16 | – | –
5 | TGBC1TKB (biliary tract, adherent) | 0.965 | > 16 | 0.987 | > 10.2 | 0.939 | > 8 | 0.869 | 1.82 | 0.979 | > 5 | 0.969 | > 16 | 0.931 | > 16 | – | –
6 | TGBC24TKB (biliary tract, adherent) | 0.946 | > 16 | 0.934 | > 10.2 | – | – | – | – | 0.979 | > 5 | 0.948 | > 16 | 0.967 | > 16 | 0.795 | 4.29
7 | TMK-1 (stomach, adherent) | 0.891 | > 16 | 0.944 | > 10.2 | 0.942 | > 8 | 0.825 | 1.29 | 0.956 | > 5 | 0.904 | > 16 | 0.718 | 4.31 | – | –
8 | TOV-112D (ovary, adherent) | 0.687 | 3.35 | 0.766 | 3.8 | 0.902 | > 8 | 0.725 | 0.547 | 0.981 | > 5 | 0.487 | 0.924 | 0.316 | 0.304 | – | –
9 | TYK-nu (ovary, adherent) | 0.962 | > 16 | 0.942 | > 10.2 | 0.837 | 5.88 | 0.634 | 0.301 | 0.958 | > 5 | 0.955 | > 16 | 0.668 | 3.04 | – | –
10 | UACC-893 (breast, adherent) | 0.901 | > 16 | 0.938 | > 10.2 | 0.896 | > 8 | 0.98 | > 2 | 0.948 | > 5 | 0.982 | > 16 | 0.965 | > 16 | – | –
11 | VAL (B-cell lymphoma, suspension) | 0.827 | 9.82 | 0.678 | 2.01 | 0.978 | > 8 | 0.537 | 0.158 | 0.983 | > 5 | 0.9 | > 16 | 0.852 | 12.4 | – | –
12 | VCaP (prostate, adherent) | 0.893 | > 16 | 0.898 | > 10.2 | 0.977 | > 8 | 0.868 | 1.94 | 0.981 | > 5 | 0.958 | > 16 | 0.725 | 4.47 | – | –
13 | VM-CUB-1 (bladder, adherent) | 0.978 | > 16 | 0.974 | > 10.2 | 0.967 | > 8 | – | – | – | – | 0.847 | 11.2 | 0.636 | 2.34 | 0.665 | 1.77
14 | VMRC-MELG (melanoma, adherent) | 0.953 | > 16 | 0.939 | > 10.2 | 0.989 | > 8 | 0.947 | > 2 | 0.988 | > 5 | 0.988 | > 16 | 0.987 | > 16 | – | –
15 | VMRC-RCZ (kidney, adherent) | 0.88 | > 16 | 0.901 | > 10.2 | 0.942 | > 8 | 0.793 | 1.08 | 0.961 | > 5 | 0.802 | 9.42 | 0.611 | 2.13 | – | –
16 | WIL2-NS (lymphoid neoplasm, suspension) | 0.623 | 2.03 | 0.764 | 3.08 | 0.961 | > 8 | 0.574 | 0.191 | 0.979 | > 5 | 0.887 | 12.1 | 0.339 | 0.393 | – | –
